Experiments:
[1] = biological target: T1, NrnCBh (Bartonella henselae, UniProt X5MEI1); assay: X-ray crystal structure; type: binding; conditions: protein:substrate 1:2; active site
T1 construct: gene BM1374165_00260; full length, His6-SUMO tag cleaved by Ulp1, E. coli; homooctamer
T1 sequence (X5MEI1 1-206): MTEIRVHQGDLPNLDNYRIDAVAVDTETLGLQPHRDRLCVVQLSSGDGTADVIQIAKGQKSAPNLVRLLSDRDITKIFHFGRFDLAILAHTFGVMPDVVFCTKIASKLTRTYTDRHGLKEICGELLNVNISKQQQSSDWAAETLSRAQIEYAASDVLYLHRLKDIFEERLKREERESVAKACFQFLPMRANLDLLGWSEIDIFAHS

[2] = biological target: OrnNoc (Nocardioides alkalitolerans, UniProt Z9Y7C7QGD1); assay: 2-aminopurine fluorescence unquenching, initial rates
[3] = biological target: T2, OrnPa (Pseudomonas aeruginosa, UniProt P57665); assay: as above; type: biochemical; conditions: 20 mM Tris-HCl, 150 mM KCl, MgCl2, pH 7.9, 21 °C
T2 sequence (P57665 1-180): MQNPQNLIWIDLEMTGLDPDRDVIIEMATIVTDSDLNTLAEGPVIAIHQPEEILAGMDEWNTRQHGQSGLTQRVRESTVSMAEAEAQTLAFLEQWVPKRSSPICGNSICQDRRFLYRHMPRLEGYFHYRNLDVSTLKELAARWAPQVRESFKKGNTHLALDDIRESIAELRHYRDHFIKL

[4] = biological target: T3, OrnVc (Vibrio cholerae, UniProt A5F3M7); assay: as above; type: biochemical; conditions: 20 mM Tris-HCl, 150 mM KCl, MgCl2, pH 7.9, 21 °C
T3 construct: gene orn

[5] = biological target: T1, NrnCBh; assay: as above; type: biochemical; conditions: 20 mM Tris-HCl, 150 mM KCl, MgCl2, pH 7.9, 21 °C

SMILES: Nc1nc2c(ncn2[C@H]2C[C@H](OP(=O)(O)OC[C@H]3O[C@@H](n4cnc5c(=O)[nH]c(N)nc54)C[C@@H]3O)[C@@H](COP(=O)(O)O)O2)c(=O)[nH]1 [dpGG]
- X-ray crystal structure [1]: determining the structure of B. henselae NrnC (NrnCBh) bound to dpGG

SMILES: Nc1ncc2ncn([C@@H]3O[C@H](COP(=O)(O)O)[C@@H](OP(=O)(O)OC[C@H]4O[C@@H](n5cnc6c(=O)[nH]c(N)nc65)[C@H](O)[C@@H]4O)[C@H]3O)c2n1 [p(2AP)G]
- kcat/Km [2]: OrnPa, OrnBla, and OrnNoc had a slight bias toward diribonucleotides
- kcat/Km [3]: OrnPa, OrnBla, and OrnNoc had a slight bias toward diribonucleotides
- kcat/Km [4]: OrnVc did not distinguish between RNA and DNA dinucleotides

SMILES: Nc1ncc2ncn([C@H]3C[C@H](OP(=O)(O)OC[C@H]4O[C@@H](n5cnc6c(=O)[nH]c(N)nc65)C[C@@H]4O)[C@@H](COP(=O)(O)O)O3)c2n1 [p(d2AP)dG]
- kcat/Km [5]: cleaved both RNA and DNA substrates with similar or equal efficiency

From paper PMC11706625, “Structural and bioinformatics analyses identify deoxydinucleotide-specific nucleases and their association with genomic islands in gram-positive bacteria” (Nucleic Acids Research, 2025)
